The whole screen tested about 270,000 compounds, of which about 5,800 (2.1%) were called active. Inconclusive results, whose numbers are uncertain, are shown with a selection of clear calls. Calls come from the whole dose curve; as a rule, active = well fitted inhibition curve with a large enough effect; inconclusive = small, poorly fitted or top-dose-only effect; inactive = flat fitted curve, though single readings scatter. Potencies beside an inconclusive call are fits to weak or partial responses and may not hold up.
target: Microtubule-associated protein tau (Homo sapiens) (UniProt P10636); assay: qHTS for Inhibitors of Tau Fibril Formation, Thioflavin T Binding; settings: recombinant tau K18 P301L, heparin-induced fibrillization, ThT fluorescence; series mostly up to 57.4 µM; activity, negative = inhibition: at the top concentration; note: nearly all actives have a fitted effect of over 55% in size
Sequence of UniProt P10636 (P10636 whole entry, looked up): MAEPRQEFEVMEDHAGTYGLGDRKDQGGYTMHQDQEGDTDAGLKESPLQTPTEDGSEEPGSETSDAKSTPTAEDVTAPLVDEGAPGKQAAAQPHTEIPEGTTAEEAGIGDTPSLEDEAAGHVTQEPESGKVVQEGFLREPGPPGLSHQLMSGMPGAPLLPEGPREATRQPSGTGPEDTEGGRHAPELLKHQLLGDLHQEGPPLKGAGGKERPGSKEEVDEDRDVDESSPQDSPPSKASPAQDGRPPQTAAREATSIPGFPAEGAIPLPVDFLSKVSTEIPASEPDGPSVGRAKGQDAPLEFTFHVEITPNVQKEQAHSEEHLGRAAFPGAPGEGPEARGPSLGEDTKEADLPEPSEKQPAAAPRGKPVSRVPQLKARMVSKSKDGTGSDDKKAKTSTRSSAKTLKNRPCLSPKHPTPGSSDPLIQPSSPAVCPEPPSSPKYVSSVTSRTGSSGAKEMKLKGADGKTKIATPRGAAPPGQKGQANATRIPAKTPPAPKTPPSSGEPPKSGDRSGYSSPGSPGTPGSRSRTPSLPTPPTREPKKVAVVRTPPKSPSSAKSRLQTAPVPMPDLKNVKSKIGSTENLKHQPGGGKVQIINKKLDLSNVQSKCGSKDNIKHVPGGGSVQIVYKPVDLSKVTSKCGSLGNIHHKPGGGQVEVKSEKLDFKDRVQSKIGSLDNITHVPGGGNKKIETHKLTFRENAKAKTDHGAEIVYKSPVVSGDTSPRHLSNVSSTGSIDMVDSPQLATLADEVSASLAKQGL
Outline: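 Using a mix of unlabeled (15 uM) and Alexa 594-labeled (0.24 uM) tau K18 P301L, heparin-triggered fibrillization over 6 hr at 37 C was scored by ThT fluorescence.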
% is set by controls: 0 for no effect and ±100 for the full control effect; potency is the fitted concentration of half-maximal effect; tags give direction and shape of the fitted curve.

Row | SMILES | Potency | activity, negative = inhibition
1 | CCN(CC)C(=O)c1sc2nc(N3CCOCC3)c3c(c2c1N)CCCC3 | inconclusive: 17.8 µM [inhibitor, partial curve] | 
2 | Cc1ccc(C)c(N(Cc2cc3ccc(C)cc3[nH]c2=O)C(=O)c2ccco2)c1 |  | inactive: -11.3%
3 | O=C(NCCCN1CCCC1)c1cc2c(Cl)nc3ccccc3c2s1 | inconclusive: 44.7 µM [inhibitor, single point] | 
4 | COc1ccc(-c2ccc(CNc3ccc4[nH]c(=O)[nH]c4c3)o2)cc1Cl | inconclusive: 2.24 µM [inhibitor, full curve] | 
5 | CCc1nnc(SCC(=O)N(C)c2ccccc2)c2cc3sccc3n12 | inconclusive: 14.1 µM [inhibitor, partial curve] | 
6 | CCOC(=O)C1(Cc2cccc(F)c2)CCN(Cc2nc(CC)[nH]c2C)CC1 | inconclusive: 35.5 µM [inhibitor, single point] | 
7 | CCCN(CCC)CCCNc1ccc(C(=O)Nc2cccc(OC)c2)cc1[N+](=O)[O-] | inconclusive: 25.1 µM [inhibitor, partial curve] | 
8 | COC(=O)c1ccccc1NC(=S)NC(=O)c1cccc2ccccc12 | inconclusive: 11.2 µM [inhibitor, partial curve, poor fit] | 
9 | CCOc1ccc(C(C(=O)NC2CCCC2)N(CCCO)C(=O)c2ccc(-c3ccccc3)[nH]2)cc1 (stereo not drawn) | inconclusive: 6.31 µM [inhibitor, partial curve] | 
10 | O=C1N=c2ccccc2=C1c1c(O)n(-c2cccc(F)c2)[nH]c1=O | active: 14.1 µM | 
11 | COc1coc(C(O)C[N+](=O)[O-])cc1=O (stereo not drawn) | inconclusive: 20 µM [inhibitor, single point] | 
12 | CCOc1ccccc1Nc1nc(-c2cccc(Cl)c2)c2c(n1)-c1ccccc1OC2 | inconclusive: 12.6 µM [activator, partial curve, poor fit] | 
13 | COc1ccc(N/C=C\C(=O)c2ccc3c(c2)OCO3)cc1 | inconclusive: 3.55 µM [inhibitor, partial curve] | 
14 | Cc1cc(C)c(C#N)c(SCC(=O)OC2CCCCC2)n1 | inconclusive: 35.5 µM [inhibitor, single point] | 
15 | COc1ccc(C(=O)Nc2ccc(Cl)cc2C(=O)NCc2ccco2)cc1OC | inconclusive: 20 µM [inhibitor, single point] | 
16 | CN(C)c1ccc(/C=C/C(=O)c2cccc(Br)c2)cc1 | inconclusive: 14.1 µM [inhibitor, partial curve] | 
17 | CN(C)c1ccc(/C=C/C(=O)c2ccc(O)cc2)cc1[N+](=O)[O-] | active: 4.47 µM | 
18 | COc1cc(OC)c(OC)cc1CN(C)CCc1ccccn1 |  | inactive: -3.8%
